Data on 56 sequences can be found in the supplement of paper PMC11417369.

± gives the standard deviation of the averaged measurements. The list shows a part of the results.

For this experiment, the system named is PfAP2-LT AP2 domain (GST-tagged). In words: gcPBM binding intensity (ln(normalized median fluorescence intensity)); higher = stronger DNA binding. In short, it runs like this:
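Binding intensity is defined as the maximum Masliner-normalised natural-log median intensity across replicate spots for either probe orientation. It was measured on an Agilent 4 × 180k array of primer-extended double-stranded 36-bp intergenic genomic probes and negative controls, to which GST-tagged P. falciparum DNA-binding domains made in E. coli were applied for 1 h in 1× PBS with 1% milk, 0.2 mg/ml BSA, 0.5% salmon testes DNA and 0.03% Triton X-100. Detection was by Alexa488 anti-GST antibody and scanning at 488 nm.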
With “ATATAGATATATAGTAGTACTTGTTATATAAGATAA [XGTACX_site6336]”, the “gcPBM binding intensity (ln)” value was 8.74 ± 0.36.

Regarding “ACAGAGCTTTAAATACGTACATAATATATATTAAAT [XGTACX_site8221]”, the “gcPBM binding intensity (ln)” value is 8.77 ± 0.43.

As for “ATAAAAAAAAAATAATGTACTTATATATATATATAT [XGTACX_site8282]”, the “gcPBM binding intensity (ln)” value was found to be 9.06 ± 0.085.

In the case of “ATATATATATATAAATGTACATTGTGTGTTGTAAGA [XGTACX_site2434]”, the “gcPBM binding intensity (ln)” value came out at 9.25 ± 0.27.

As for “TTAAAAATGTTGGAAAGTACATATTTTTTAAAAGTA [XGTACX_site802]”, the “gcPBM binding intensity (ln)” value came out at 8.41 ± 0.35.

Take “CGCCTATAAGCTTAGACACACAAATAAATAAATATA [CACACA_site1264]”: the “gcPBM binding intensity (ln)” value was 8.65 ± 0.52.

With “TATTGGGGGTATAAACACAGTAAGTAAATAAATAAA [CACACA_negctrl_site1680]”, the “gcPBM binding intensity (ln)” value is 8.69 ± 0.52.

With “TACCTAATTCGGTCCCGTACAAGTTAGTTTCAATTC [XGTACX_site2703]”, the “gcPBM binding intensity (ln)” value is 8.7 ± 0.42.

In the case of “TATAGATACATATACACACACACACCCACATATATA [CACACA_site3436]”, the “gcPBM binding intensity (ln)” value came out at 9.94 ± 0.11.

In the case of “ATGTATGTGTAACATAGTACTTTTTAAAAGGATATT [XGTACX_site5328]”, the “gcPBM binding intensity (ln)” value was found to be 8.92 ± 0.48.

In the case of “TATTTTTTATAATAATGTACATATATATATATAATA [XGTACX_site2329]”, the “gcPBM binding intensity (ln)” value was 8.47 ± 0.42.

In the case of “AATATCATATAAAAATGTACAAATTCTAAAACACGA [XGTACX_site1442]”, the “gcPBM binding intensity (ln)” value worked out at 8.95 ± 0.46.

Take “GTATTCATGCTAAAGGTGCAATAATTTTTATAATAA [GTGCAC_site9603]”: the “gcPBM binding intensity (ln)” value was determined as 8.54 ± 0.49.

Turning to “AAGATAAAATTATGTAGTACAAAAAAAAATAAAAAA [XGTACX_site139]”, the “gcPBM binding intensity (ln)” value turned out to be 8.71 ± 0.57.

Consider “ATCAAACCTTTTAAATGTACATTCGGAGTAAAAAAA [XGTACX_site282]”, for which the “gcPBM binding intensity (ln)” value was determined as 8.65 ± 0.39.

For “TGATTTCCAGGTTATTGTACAAAATTAATTTTCGAA [XGTACX_site2491]”, the “gcPBM binding intensity (ln)” value was 8.39 ± 0.47.

Turning to “AAAAGTTTTATTTAAATGAATTAATCTTTACTATAT [CACACA_negctrl_site282]”, the “gcPBM binding intensity (ln)” value came to 8.32 ± 0.53.

Regarding “CAATTTATAAAGAAAACACACATATACATATATACA [CACACA_site1260]”, the “gcPBM binding intensity (ln)” value came out at 8.93 ± 0.49.

Consider “TATTAAACAAATTATGCAAAAATAAATCAATATGTT [CACACA_negctrl_site171]”, for which the “gcPBM binding intensity (ln)” value turned out to be 8.7 ± 0.41.

In the case of “ATTATTTTATAATTCACACATAAATAAAAAAAAAAT [CACACA_site5290]”, the “gcPBM binding intensity (ln)” value was determined as 8.52 ± 0.38.

As for “TTAGGAAGCTCACAAAATAAAGTGAAAAGAAGAAAA [XGTACX_negctrl_site572]”, the “gcPBM binding intensity (ln)” value turned out to be 8.63 ± 0.63.

On to “TAAATATTATTTCATAGTACTTTTATTATTGATATA [XGTACX_site5566]”, for which the “gcPBM binding intensity (ln)” value was 8.53 ± 0.42.

For “TTTTGTAGTTTATAAATAAAAGAGAATATGGTGCTT [CACACA_negctrl_site413]”, the “gcPBM binding intensity (ln)” value was 8.55 ± 0.47.

For the sequence “TAAATAAATATATATACACACATATATATATATATA [CACACA_site598]”, the “gcPBM binding intensity (ln)” value is 9.43 ± 0.071.

Consider “ATATATATAAAACACACACACAAAAAAAATAAAGAC [CACACA_site117]”, for which the “gcPBM binding intensity (ln)” value came out at 10.1 ± 0.28.

On to “TAATGTATATGTAAATGTACATGTATATTATTTAAA [XGTACX_site1840]”, for which the “gcPBM binding intensity (ln)” value stood at 8.64 ± 0.4.

As for “ATCAAAGATAAATTTACACACATATATATATATATA [CACACA_site2969]”, the “gcPBM binding intensity (ln)” value stood at 9.72 ± 0.085.

As to “AAGATATTTGTATAATGTACAAAACTATATAAAACT [XGTACX_site1433]”, the “gcPBM binding intensity (ln)” value was 8.81 ± 0.46.

On to “TCTTCCCAAATAAAGTGTACATAAATACGAATAATA [XGTACX_site4363]”, for which the “gcPBM binding intensity (ln)” value came out at 8.65 ± 0.49.

Turning to “AAAATTAAAATATATACACACATATATATATTAAAT [CACACA_site4419]”, the “gcPBM binding intensity (ln)” value was determined as 8.85 ± 0.42.

“AAATATACAAAATATACACACATATTTATTTATGAT [CACACA_site2051]”: the “gcPBM binding intensity (ln)” value came out at 8.91 ± 0.39.

On to “TATTTTCATTTGCGCGCACACAATAATAATTTTTGG [CACACA_site3525]”, for which the “gcPBM binding intensity (ln)” value turned out to be 9.32 ± 0.34.

For the sequence “AACAATTATTTATCTACACACTTTTATGTTATTTAC [CACACA_site9]”, the “gcPBM binding intensity (ln)” value was determined as 9.12 ± 0.43.

Turning to “TAAAAAATATAAATGACACACACTTAAAAACAAAGA [CACACA_site671]”, the “gcPBM binding intensity (ln)” value came out at 9.23 ± 0.38.

With “TATAAATTAATGACATGTACATAAAAGTATAGATGT [XGTACX_site6534]”, the “gcPBM binding intensity (ln)” value amounted to 9.21 ± 0.43.

For “AATACAATATAGTGAAAAATAATTAAATACAATAAG [XGTACX_negctrl_site161]”, the “gcPBM binding intensity (ln)” value stood at 8.88 ± 0.61.

As to “CGTAAACAATTATGATGTACATAAAATATATATATA [XGTACX_site2705]”, the “gcPBM binding intensity (ln)” value was determined as 8.96 ± 0.47.

For the sequence “GTATTAGATAAATACACACACAAGCATATATTTTTA [CACACA_site3431]”, the “gcPBM binding intensity (ln)” value worked out at 9.28 ± 0.4.

Regarding “TCTATTCATTTTGAAGGTACACATTTCTTTATAATA [XGTACX_site6218]”, the “gcPBM binding intensity (ln)” value came out at 8.52 ± 0.48.

Take “AAAAATATATATATATATATATATATAAGGAATATA [XGTACX_negctrl_site450]”: the “gcPBM binding intensity (ln)” value worked out at 9.37 ± 0.32.

Regarding “AATATATCATTATATAAACACACAATATGTTTTTTA [CACACA_site9260]”, the “gcPBM binding intensity (ln)” value stood at 8.66 ± 0.44.

Regarding “AATAAATATATAAATACACACAAACATACATATATA [CACACA_site9340]”, the “gcPBM binding intensity (ln)” value worked out at 9.29 ± 0.34.

Turning to “TTAAATTTTTTTTTGTGTACGAAAAACAGAAAAAAT [XGTACX_site8625]”, the “gcPBM binding intensity (ln)” value is 8.26 ± 0.53.

As for “TATGTGTATGGGAATGCATGTAAATATGTACATATA [TGCATGCA_site737]”, the “gcPBM binding intensity (ln)” value amounted to 8.93 ± 0.45.

For the sequence “ATATATATATACATATGTACATATAAAATAATTTTG [XGTACX_site3731]”, the “gcPBM binding intensity (ln)” value is 8.87 ± 0.33.

In the case of “TTGTTCCACAAAAATTTAGTCAAAAAAAAATAAAAA [TGCATGCA_negctrl_site546]”, the “gcPBM binding intensity (ln)” value amounted to 8.27 ± 0.43.

Turning to “ACAAAAAAAAAAATAACACACATGGGGGTGTATAAA [CACACA_site3797]”, the “gcPBM binding intensity (ln)” value worked out at 9.2 ± 0.12.

With “AATGAATAACAATACTATATGATTTTTAATACATTA [XGTACX_negctrl_site42]”, the “gcPBM binding intensity (ln)” value was found to be 8.45 ± 0.49.

Turning to “ATTAATTAAGGCACATGTACAAAATATTTTTTATAA [XGTACX_site1964]”, the “gcPBM binding intensity (ln)” value came to 8.79 ± 0.35.

Take “TATACAATCTATATAACACACATATTTATATAAAAT [CACACA_site1797]”: the “gcPBM binding intensity (ln)” value was 8.79 ± 0.38.

As for “AATATAGTTCAATATACACACCCCTTTATTCATTTT [CACACA_site3625]”, the “gcPBM binding intensity (ln)” value was found to be 9.15 ± 0.26.

As for “CAATATAAAAAACACACACACAAACATATATTTATA [CACACA_site3703]”, the “gcPBM binding intensity (ln)” value was 9.84 ± 0.29.

Consider “TATTTATATAAAAATACACACATGAATGGATATATA [CACACA_site6335]”, for which the “gcPBM binding intensity (ln)” value is 8.79 ± 0.4.

In the case of “TGTCGGCTTAGATTAGTGCACTGAAAAATGAAGTAT [GTGCAC_site9919]”, the “gcPBM binding intensity (ln)” value came out at 8.72 ± 0.49.

As for “ACAAAACGAACATACGCATGTGTGTACATTAATATA [TGCATGCA_site922]”, the “gcPBM binding intensity (ln)” value was found to be 9.51 ± 0.34.

Turning to “CACCAATTCCTATGCACACACATCTGCATATTATAT [CACACA_site5049]”, the “gcPBM binding intensity (ln)” value worked out at 9.62 ± 0.38.
